# Measured values as given in PubChem BioAssay AID1030 (National Center for Advancing Translational Sciences (NCATS), 2008).
# The whole screen tested about 220,000 compounds, of which about 16,000 (7.3%) were called active. This list was built around the results that the source calls inconclusive (neither active nor inactive); the mix of calls is not that of the screen. Calls follow the shape of the dose curve; as a rule, active = well fitted inhibition curve with a large enough effect (not every such curve was filed as active); inconclusive = small, poorly fitted or top-dose-only effect, or another doubt; inactive = no such curve, though single readings can be large or run the other way. No potency is given beside an inconclusive call; the fits are too rough.
# Target: Aldehyde dehydrogenase 1A1 (Homo sapiens) (UniProt P00352)
# Assay: qHTS Assay for Inhibitors of Aldehyde Dehydrogenase 1 (ALDH1A1);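 as to activity, negative = inhibition: plate controls were no enzyme wells and a reference inhibitor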
# Conditions: Purified ALDH1A1, NADH fluorescence, propionaldehyde substrate; series mostly up to 75.3 µM
# Potency is read from the fitted curve at half-maximal effect; tags tell the direction and shape of the fitted curve.
# Chain of UniProt P00352 (P00352 whole entry, looked up): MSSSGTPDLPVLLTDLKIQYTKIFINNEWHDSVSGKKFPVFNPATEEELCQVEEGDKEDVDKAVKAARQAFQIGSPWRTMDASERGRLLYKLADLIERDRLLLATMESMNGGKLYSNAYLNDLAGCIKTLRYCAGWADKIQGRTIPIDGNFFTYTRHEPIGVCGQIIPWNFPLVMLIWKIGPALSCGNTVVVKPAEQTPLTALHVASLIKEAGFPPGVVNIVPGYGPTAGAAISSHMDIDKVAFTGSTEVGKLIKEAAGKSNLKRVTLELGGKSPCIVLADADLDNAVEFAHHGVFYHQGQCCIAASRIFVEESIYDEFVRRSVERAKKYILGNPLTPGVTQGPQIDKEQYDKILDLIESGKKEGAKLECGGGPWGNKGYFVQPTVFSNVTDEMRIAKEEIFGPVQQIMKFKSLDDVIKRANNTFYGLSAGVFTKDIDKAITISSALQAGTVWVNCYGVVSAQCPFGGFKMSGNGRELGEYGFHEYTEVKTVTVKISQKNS
Compound,Potency,"activity, negative = inhibition"
CC(C(=O)O)N1C(=O)C2C3CC(C2C1=O)C1C(c2ccccc2)c2sc(=O)[nH]c2SC31 (stereo not given),"inconclusive [inhibitor, partial curve]",–
O=C(c1cc(-c2ccccc2Cl)on1)N1CCN(C(=O)c2ccco2)CC1,inactive,–
CN(C)S(=O)(=O)c1cc(C(=O)O)c(NC2CCCCC2)cc1Cl,"inconclusive [inhibitor, single point]",–
O=C1c2cccnc2C(Nc2ccccc2)N1Cc1ccco1 (stereo not given),active: 22.4 µM,–
COc1c(OC)c(O)c2c(=O)c(O)c(-c3ccccc3)oc2c1OC,"inconclusive [inhibitor, partial curve]",–
CCOC(=O)c1ccc(-c2ccc(/C=N/NC(=O)CN(c3ccccc3Cl)S(C)(=O)=O)o2)cc1,"inconclusive [inhibitor, partial curve]",–
Cc1cc(S(=O)(=O)NC2CCCCC2)c(C)s1,"inconclusive [inhibitor, single point]",–
O=C(O)CCSc1ncnc2nc[nH]c12,–,inactive: 12.3% [at 13.5 µM]
CC(C)[C@H](NC(=O)c1ccccc1)C(=O)OCC(=O)N1CC2(C)CC1CC(C)(C)C2 (stereo not given in full),inactive,–
Cc1ccc(NC(=O)NC2CCCCC2)cc1S(=O)(=O)N1CCOCC1,"inconclusive [inhibitor, single point]",–
COc1ccccc1-c1nccc(NCc2cccc(C)c2)n1,"inconclusive [inhibitor, single point]",–
CN(C)C(=O)c1ccc(-c2cncnc2Nc2ccc(F)cc2)cc1,active: 11.2 µM,–
Cc1ccc(-c2nc3ccccn3c2C=O)cc1,"inconclusive [inhibitor, single point]",–
O=C(CSc1nc(O)cc(=O)n1-c1ccccc1)NC1CCCCC1,active: 25.1 µM,–
CC(C)Oc1cccc(C(=O)C2CCCN(Cc3cccn3-c3ccccn3)C2)c1 (stereo not given),inactive,–
CN(C)c1ccc(/C=N/NC(=O)c2ccc(CN3CCOCC3)cc2)cc1Br,"inconclusive [inhibitor, single point]",–
CC(=O)NC12CC3CC(C1)CC(C(=O)OCC(=O)c1ccc4c(c1)OCCO4)(C3)C2,"inconclusive [inhibitor, single point]",–
COc1ccccc1NCC(=O)N/N=C/C=C/c1ccccc1,active: 14.1 µM,–
COc1ccc(N2C(=O)C(CC(=O)Nc3ccccc3)N(Cc3ccccn3)C2=S)cc1 (stereo not given),"inconclusive [inhibitor, single point]",–
COc1ccc(OC)c(N=c2oc3cc(O)ccc3cc2C(N)=O)c1,"inconclusive [inhibitor, partial curve]",–
